The RNAGym collection of RNA variant scans (doi:10.1093/nar/gkz1192)
Read counts are not given, so values of variants with three or more changes are uncertain.

B1: CPEB3 Ribozyme (parent)
chain: UAACAGGGGGCCACAGCAGAAGCGUUCACGUCGCAGCCCCUGUCAGAUUCUGGUGAAUCUGCGAAUUCUGCUGUAUAUCUC

Variants of: B1
Test: self-cleavage, relative activity (ratio to wild type); higher = more cleavage; in vitro, sequencing
Procedure, shortened: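 Barcoded CPEB3 ribozyme mutants, produced by rounds of error-prone PCR, self-cleaved while being transcribed with T7 RNA polymerase for 5 hours at 37°C and during a subsequent 15 min DNase I step before EDTA was added. Sequencing of template-switched cDNA on Illumina gave cleaved and total reads, and DNA sequencing assigned barcodes to variants. Each variant's relative activity is its cleaved/total read fraction divided by the unmutated ribozyme's fraction, averaged across three batches. A variant needed a minimum of 5 reads.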

Variant	self-cleavage
A15G U43A G55C	0.88
A15U A28U A65G	0.16
A15U A21G A28G	0.11
A15U A64U U78C	0.25
A15G U48C U60A	0.19
A15U A45U G63U C71A	0.08
A15U A18U U51C U72A	0.18
A15U A28U U41A A45U U66A C68U	0.1
A15G U43C U72A U76A	0.2
A15G U49C A64U	0.1
A15U A18G U25C U60C A65G U74C U78C	0.05
A15U C23A U31G	0.45
A15U A21G U25C U51A U54C	0.31
A15G U66A U72C U78C	0.53
A15G U49A A64G U67G	0.19
A15G U43C C81A	0.8
A15U A18G U43C A56G A64U U67C	0.1
A15G U31A A35C U72A	0.14
A15U A35U U54A U78C	0.49
A15U A20G A21U G24U A45G G53A	0.08
A15G U66A U67C	0.26
A15U A21G U41C C50G A57C U60C A77U	0.11
A15U A21U U26C	0.12
A15G U54C A56G U58C	0.12

Variant	self-cleavage
A15U A20C U60C	0.14
A15U A77G U78C	1.1
A15U A18U A21G C23A A28G	0.2
A15G U41A U54A	0.13
A15G U43C G55U	0.21
A15G U48G A64G	0.28
A15G U43A U54C A65G	0.24
A15U A20G U26C U49C U72C	0.06
A15U A47U A56G A77G	0.18
A15U A18G A21G A47G U60C U72C	0
A15G U43C U58A U78C	0.07
A15U A21U U26C C38A U41C	0.3
A15G U41A A64G U80A	0.15
A15G U31C U48C U78C	0.15
A15U A18U C62U	0.08
A15U A20G U54G A64G U78C	0.11
A15U A21G A56G U60C C71U	0.07
A15G U51A U72A	0.55
A15U A45G U60C	0.45
A15U A28C U31C A64G	0.22
A15U A28G U31C G42A A47G A56G	0.13
A15G U60C A64G A75U	0.27
A15G U48C C50U	0.19
A15G U69A G73A U80G	0.51

Variant	self-cleavage
A15U A28G A35C A45C A47G	0.08
A15U A64U A65G U72A U78C	0.08
A15G U60C U67A	0.26
A15G U60C U67C	0.13
A15U A65U U72C U78C	0.43
A15U A18G A20G	0.46
A15G U41A A56G	0.25
A15G U49C A56U C62U U72C C79U	0.03
A15U A18G C29U U51C U58A	0.09
A15U A64U U72C U74C	0.11
A15G U31C G46A A64U	0.2
A15U A20G G22U	0.23
A15U A28U A64G U67G	0.08
A15U A20G A64G	0.22
A15U A18U U25G	0.43
A15G U58C U72A	0.18
A15U A20U U43G	0.16
A15U A47G U74C C79U	0.78
A15G U26C C39U	0.35
A15G U31A U43C	0.44
A15U C32A A47G U66C U67C	0.13
A15U A57G A64G U69C U72C	0.21
A15U A35G U54C	1.27
A15U A18U A20G U43A A47U U78C	0.03

Variant	self-cleavage
A15U A21G U69C U74C	0.26
A15U A18G A20G A47G U72C	0.08
A15U A18G A28G A35U U80C	0.08
A15U A21G U74C	0.32
A15U A45G A57G U58C	0.16
A15G U31C A47G U54C U66A	0.4
A15G U41A A56G A57G	0.14
A15G U51C U54A A57G A77G	0.81
A15U A18C G30U A65G	0.11
A15G U41A A47G	0.36
A15U A20U U49C C81A	0.1
A15G U31C U43C A45U	0.13
A15G U26C U54C U69C U72C U76C	0.08
A15G U41A U49C U78A	0.04
A15U A18G U69C	0.8
A15U C17U A21G U31C	0.55
A15G U48C A57G	0.98
A15U A35G U41A A56G C62U U78C	0.05
A15U A21G U54C	0.34
A15U A35C U41C U78C	0.57
A15G U41C A65G	0.33
A15G U43A A47U A65G	0.19
A15G U51C U58C A75U	0.43
A15U A18U A20G U31C G52C U66G U69C	0.1

Variant	self-cleavage
A15U A57G A64G	0.32
A15U A18G U43A U67C	0.14
A15U C29U U60C U72C U78A	0.04
A15U A20U U67A U74C	1.16
A15U A18G U54C	0.2
A15U A28U A35U U80C	0.49
A15G U31C G33A C37U	0.25
A15U A20U U31C A35G U67A U76C	1.26
A15U A18G U51C	0.14
A15U A35G A56U A57U U66C	0.53
A15U A45G C71U U80C	0.11
A15G U49C U51A A56G U72C	1.21
A15U A18U U49C A64G	0.24
A15U A20U U25A A35G	0.09
A15U C17U U43A	0.34
A15U A20G U26C G33A U43C U69G	0.07
A15U A20U C23U U25C U67A	0.06
A15U A20G G33U U51C G70A	0.23
A15U A35U A47G U58C U78C	0.44
A15G U51C U67C U80A	0.33
A15U A20G G46U U48A U60C	0.22
A15U A20G C23A	0.13
A15G U41G A45U A56C U69A	0.07
A15G U43C A65U	0.1

Variant	self-cleavage
A15U A21G G30A C59U U72C	0.07
A15G U54A U67C U74C U80C	0.13
A15U A20U U54C	0.17
A15U A21G U25C A47G G63U	0.06
A15G U58C U78C	0.41
A15U A35G A45G U51A C68G U69C	0.91
A15G U43C U54G U58C U74C U80C	0.61
A15G U72C C79G	1.27
A15G U31C U76C	0.31
A15U C32U U58C U66C	0.08
A15U A35U U41C A45U U54A U74A	0.17
A15G U60G U74C	0.35
A15U A28G A35U U48C U51C	0.09
A15G U60C U74C	0.47
A15U A18G A20U U25C C27A G73A	0.35
A15U A20G U60C	0.23
A15G U26C U60C U66C U74C U80C	0.07
A15U C29G U51A A56G U66C	0.07
A15G U31G G33A A45U U60A	0.12
A15U A18G A47G	0.2
A15U A20U U41A	0.12
A15U C23A U67C	0.12
A15U A45C G53C A75U A77U	0.15
A15U A45U U49A A64G U66C U74C A75G	0.04

Variant	self-cleavage
A15G U41C G53A A64U	0.21
A15U A28G U69C	0.14
A15U A20G C62U C71G	0.07
A15G U43C U69C	0.32
A15U A20G U43C A57G G73U	0.18
A15U A18G U41C	0.21
A15G U49C U60C	0.17
A15G U51A U80C	1.19
A15U A21G U26A U72A	0.25
A15U A21G G33A U66C U69C U72C	0.06
A15G U41C A47G A75G	0.87
A15G U31C C38A C44G C50A U60G	0.07
A15U A35U U41A	0.21
A15U C29G U31A A65G	0.18
A15U A28G A45U U66C U67C U80A	0.28
A15G U31A U41C A45G U48C A64U U72A	0.11
A15G U54A U67C	0.23
A15U A45G G53A C59A A75U	0.13
A15G U31A U43A G55A G63A A75G	0.3
A15G U31A C39A	0.2
A15U A57G U60A	0.15
A15G U51C A75G	0.67
A15U A21G U31A U66C	0.53
